Here are results for five molecules from the supplement of paper PMC4604168 (melanoma cell lines).

Some of the results follow. Most values come without repeats; read them as rough.
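Also: cells treated in 1,536-well plates, then fixed and DAPI-stained, with nuclei counted from automated high-throughput microscope images.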

For this assay, the system named is UACC62. As to the kind of experiment: cell count relative to DMSO control; melanoma cells; higher = more viable cells. The following applies: library dose: standard library concentration; 72 h.
On to `COc1cc([C@@H]2c3cc4c(cc3[C@@H](O[C@@H]3O[C@@H]5CO[C@@H](C)O[C@H]5[C@H](O)[C@H]3O)[C@H]3COC(=O)[C@H]23)OCO4)cc(OC)c1O` [etoposide] + NC(=O)Nc1cc(-c2cccc(F)c2)sc1C(=O)N[C@H]1CCCNC1 [AZD7762] (first compound 0.1 µM, partner dose 0.1 µM), for which the cell count turned out to be 45%.

Take `Cn1cnc2c(F)c(Nc3ccc(Br)cc3Cl)c(C(=O)NOCCO)cc21` [selumetinib] + CN(C)S(=O)(=O)c1ccc2c(c1)/C(=C/c1cc3c([nH]1)CCCC3)C(=O)N2 [SU6656] (first compound 0.075 µM, partner dose 2 µM): the cell count came out at 70.1%.

On to `C[C@]1(O)C[C@@H](c2nc(-c3ccc4ccc(-c5ccccc5)nc4c3)c3c(N)nccn32)C1` + CO[C@@H]1[C@H](N(C)C(=O)c2ccccc2)C[C@H]2O[C@]1(C)n1c3ccccc3c3c4c(c5c6ccccc6n2c5c31)C(=O)NC4 [Midostaurin] (first compound 2 µM, partner dose 0.4 µM), for which the cell count is 52.2%.

As to `Cn1cnc2c(F)c(Nc3ccc(Br)cc3Cl)c(C(=O)NOCCO)cc21` [selumetinib] + C[C@@H]1CCN(C(=O)CC#N)C[C@@H]1N(C)c1ncnc2[nH]ccc12 [CP690550] (first compound 0.075 µM, partner dose 5 µM), the cell count was determined as 61.9%.

`Cn1cnc2c(F)c(Nc3ccc(Br)cc3Cl)c(C(=O)NOCCO)cc21` [selumetinib] + OCCn1cc(-c2cnc3nnn(Cc4ccc5ncccc5c4)c3n2)cn1 [PF04217903] (first compound 0.075 µM, partner dose 5 µM) returned a cell count of 62.3%.
